In publication PMC10163088:
Results are given in words; binding and its absence hold for the method and conditions named. In cells and extracts the contact can be indirect. Some entries that bind do so weakly or less than the wild type. Where a sequence is shown, tags or fusion partners need not be part of it.

Sequences of proteins named here, by UniProt entry; tags and fusion partners are left off. A change or cut given only in a name is not applied to a line headed by its entry.
UniProt P22579: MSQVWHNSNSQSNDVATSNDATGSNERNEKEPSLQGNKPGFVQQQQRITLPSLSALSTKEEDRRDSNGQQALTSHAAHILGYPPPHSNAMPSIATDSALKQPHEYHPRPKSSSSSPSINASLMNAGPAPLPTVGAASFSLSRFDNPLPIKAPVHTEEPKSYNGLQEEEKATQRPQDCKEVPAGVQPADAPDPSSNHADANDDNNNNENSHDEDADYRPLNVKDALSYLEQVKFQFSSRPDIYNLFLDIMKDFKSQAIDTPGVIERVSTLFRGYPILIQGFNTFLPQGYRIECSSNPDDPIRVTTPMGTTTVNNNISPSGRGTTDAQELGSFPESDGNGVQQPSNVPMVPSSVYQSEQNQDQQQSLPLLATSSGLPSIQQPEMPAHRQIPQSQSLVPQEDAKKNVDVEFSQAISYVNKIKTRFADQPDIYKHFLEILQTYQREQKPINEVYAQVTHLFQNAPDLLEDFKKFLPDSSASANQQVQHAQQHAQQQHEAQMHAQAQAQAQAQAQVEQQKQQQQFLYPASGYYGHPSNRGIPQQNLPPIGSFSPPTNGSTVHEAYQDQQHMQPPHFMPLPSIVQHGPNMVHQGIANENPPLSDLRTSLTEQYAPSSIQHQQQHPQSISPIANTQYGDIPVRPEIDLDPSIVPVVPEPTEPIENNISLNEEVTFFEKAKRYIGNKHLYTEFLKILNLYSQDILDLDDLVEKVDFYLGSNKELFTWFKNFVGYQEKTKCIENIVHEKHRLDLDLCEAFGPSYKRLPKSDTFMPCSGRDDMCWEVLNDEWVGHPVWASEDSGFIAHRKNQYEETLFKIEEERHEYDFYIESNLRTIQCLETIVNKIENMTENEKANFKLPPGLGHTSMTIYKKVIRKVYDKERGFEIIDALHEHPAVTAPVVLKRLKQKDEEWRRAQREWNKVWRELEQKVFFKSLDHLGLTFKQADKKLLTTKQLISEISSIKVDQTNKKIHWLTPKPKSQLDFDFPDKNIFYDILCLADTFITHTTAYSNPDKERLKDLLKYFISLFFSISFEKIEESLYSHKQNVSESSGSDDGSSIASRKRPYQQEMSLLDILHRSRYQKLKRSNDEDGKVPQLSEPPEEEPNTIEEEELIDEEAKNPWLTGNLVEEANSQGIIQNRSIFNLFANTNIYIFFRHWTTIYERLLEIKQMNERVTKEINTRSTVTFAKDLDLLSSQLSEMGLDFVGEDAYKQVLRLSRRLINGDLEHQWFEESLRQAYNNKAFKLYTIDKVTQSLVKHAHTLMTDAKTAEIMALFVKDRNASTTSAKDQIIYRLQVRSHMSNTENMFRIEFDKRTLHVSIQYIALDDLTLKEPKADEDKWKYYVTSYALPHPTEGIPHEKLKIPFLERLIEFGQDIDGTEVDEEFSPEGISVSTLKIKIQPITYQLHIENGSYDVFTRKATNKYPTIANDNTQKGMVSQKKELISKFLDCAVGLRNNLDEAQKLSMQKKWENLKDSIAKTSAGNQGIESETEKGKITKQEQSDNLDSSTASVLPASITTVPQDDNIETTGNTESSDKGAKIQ

Legend:
[1] = target: T1, GST-Rox1 length variant aa 124-200 (S. cerevisiae); experiment: pull-down; GST fusions of repressor length variants used for binding studies with epitope-tagged corepressors (Supporting Online Fig. 1; its legend was not shown, source of the extracts and Sin3 construct not stated); only the target purified
T1 sequence: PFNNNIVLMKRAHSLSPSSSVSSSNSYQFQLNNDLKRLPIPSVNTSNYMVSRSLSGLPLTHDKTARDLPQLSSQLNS

[2] = target: T2, GST-Rdr1 length variant aa 364-455 (S. cerevisiae); experiment: as above
T2 sequence: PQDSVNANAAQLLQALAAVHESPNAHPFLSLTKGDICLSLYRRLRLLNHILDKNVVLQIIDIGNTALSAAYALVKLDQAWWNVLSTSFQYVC

[3] = target: T3, GST-Yox1 length variant aa 220-280 (S. cerevisiae) (UniProt P34161); experiment: pull-down; GST fusions of repressors (full-length or length variants) immobilised on GSH sepharose, incubated with bacterial total protein extracts containing HA-tagged Sin3, Cyc8 or Tup1 (or Tup1 length variants); elution with free GSH, anti-HA blot (Figs. 1, 3, 4, 5); only the target purified
T3 sequence: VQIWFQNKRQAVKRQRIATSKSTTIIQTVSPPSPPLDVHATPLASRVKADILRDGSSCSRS

[4] = target: T4, GST-Xbp1 length variant aa 1-430 (S. cerevisiae) (UniProt P40489); experiment: as above
T4 sequence: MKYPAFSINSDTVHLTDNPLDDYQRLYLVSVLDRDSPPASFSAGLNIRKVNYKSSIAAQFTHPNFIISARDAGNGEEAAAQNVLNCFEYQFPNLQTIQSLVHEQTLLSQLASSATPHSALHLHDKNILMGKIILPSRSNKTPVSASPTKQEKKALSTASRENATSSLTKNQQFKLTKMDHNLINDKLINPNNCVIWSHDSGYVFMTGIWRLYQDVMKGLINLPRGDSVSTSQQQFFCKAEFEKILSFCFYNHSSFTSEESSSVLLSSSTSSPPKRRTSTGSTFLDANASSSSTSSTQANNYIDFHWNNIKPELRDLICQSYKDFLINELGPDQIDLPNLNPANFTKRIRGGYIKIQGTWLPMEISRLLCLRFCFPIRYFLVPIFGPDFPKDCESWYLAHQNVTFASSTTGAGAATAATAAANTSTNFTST

[5] = target: T5, GST-Xbp1 length variant aa 430-647 (S. cerevisiae) (UniProt P40489); experiment: as above
T5 sequence: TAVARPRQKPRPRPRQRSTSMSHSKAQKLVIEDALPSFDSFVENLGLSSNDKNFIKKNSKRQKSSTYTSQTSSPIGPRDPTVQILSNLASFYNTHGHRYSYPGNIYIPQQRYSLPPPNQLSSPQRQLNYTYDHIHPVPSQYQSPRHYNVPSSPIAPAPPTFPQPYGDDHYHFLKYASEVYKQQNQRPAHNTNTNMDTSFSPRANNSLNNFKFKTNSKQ

[6] = target: T6, GST-Dal80 length variant aa 151-200 (S. cerevisiae); experiment: as above
T6 sequence: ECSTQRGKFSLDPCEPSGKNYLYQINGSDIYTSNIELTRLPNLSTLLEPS

[7] = target: T7, GST-Xbp1 length variant aa 574-647 (S. cerevisiae); experiment: as above
T7 sequence: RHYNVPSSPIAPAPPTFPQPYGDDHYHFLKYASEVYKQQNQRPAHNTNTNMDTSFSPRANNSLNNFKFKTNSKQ

binding [1] | binding [2] | binding [3] | binding [4] | binding [5] | binding [6] | binding [7] | Substance
binds | binds |  |  |  |  |  | epitope-tagged Sin3 used in Supporting Online Fig. 1 (construct not stated) (from UniProt P22579 1-1536)
 |  | binds | binds | binds | binds | binds | HA-Sin3 (aa 1-480, comprising PAH1 and PAH2; pJL34) (from UniProt P22579 1-480) (domain or fragment)
